Reference: PubChem BioAssay AID1347165 (National Center for Advancing Translational Sciences (NCATS), 2019)
The whole screen tested about 220,000 compounds, of which about 5,700 (2.6%) were called active. The shares of active, inactive and inconclusive entries below differ from those in the screen. Calls follow the shape of the dose curve; as a rule, active = well fitted inhibition curve with a large enough effect; inconclusive = small, poorly fitted or top-dose-only effect; inactive = no such curve, though single readings can be large or run the other way. Potencies of inconclusive entries are doubtful fits and often do not repeat.

Molecular target: Lysine-specific demethylase 5B (Homo sapiens) (UniProt Q9UGL1)
Sequence of UniProt Q9UGL1 (Q9UGL1 whole entry, looked up): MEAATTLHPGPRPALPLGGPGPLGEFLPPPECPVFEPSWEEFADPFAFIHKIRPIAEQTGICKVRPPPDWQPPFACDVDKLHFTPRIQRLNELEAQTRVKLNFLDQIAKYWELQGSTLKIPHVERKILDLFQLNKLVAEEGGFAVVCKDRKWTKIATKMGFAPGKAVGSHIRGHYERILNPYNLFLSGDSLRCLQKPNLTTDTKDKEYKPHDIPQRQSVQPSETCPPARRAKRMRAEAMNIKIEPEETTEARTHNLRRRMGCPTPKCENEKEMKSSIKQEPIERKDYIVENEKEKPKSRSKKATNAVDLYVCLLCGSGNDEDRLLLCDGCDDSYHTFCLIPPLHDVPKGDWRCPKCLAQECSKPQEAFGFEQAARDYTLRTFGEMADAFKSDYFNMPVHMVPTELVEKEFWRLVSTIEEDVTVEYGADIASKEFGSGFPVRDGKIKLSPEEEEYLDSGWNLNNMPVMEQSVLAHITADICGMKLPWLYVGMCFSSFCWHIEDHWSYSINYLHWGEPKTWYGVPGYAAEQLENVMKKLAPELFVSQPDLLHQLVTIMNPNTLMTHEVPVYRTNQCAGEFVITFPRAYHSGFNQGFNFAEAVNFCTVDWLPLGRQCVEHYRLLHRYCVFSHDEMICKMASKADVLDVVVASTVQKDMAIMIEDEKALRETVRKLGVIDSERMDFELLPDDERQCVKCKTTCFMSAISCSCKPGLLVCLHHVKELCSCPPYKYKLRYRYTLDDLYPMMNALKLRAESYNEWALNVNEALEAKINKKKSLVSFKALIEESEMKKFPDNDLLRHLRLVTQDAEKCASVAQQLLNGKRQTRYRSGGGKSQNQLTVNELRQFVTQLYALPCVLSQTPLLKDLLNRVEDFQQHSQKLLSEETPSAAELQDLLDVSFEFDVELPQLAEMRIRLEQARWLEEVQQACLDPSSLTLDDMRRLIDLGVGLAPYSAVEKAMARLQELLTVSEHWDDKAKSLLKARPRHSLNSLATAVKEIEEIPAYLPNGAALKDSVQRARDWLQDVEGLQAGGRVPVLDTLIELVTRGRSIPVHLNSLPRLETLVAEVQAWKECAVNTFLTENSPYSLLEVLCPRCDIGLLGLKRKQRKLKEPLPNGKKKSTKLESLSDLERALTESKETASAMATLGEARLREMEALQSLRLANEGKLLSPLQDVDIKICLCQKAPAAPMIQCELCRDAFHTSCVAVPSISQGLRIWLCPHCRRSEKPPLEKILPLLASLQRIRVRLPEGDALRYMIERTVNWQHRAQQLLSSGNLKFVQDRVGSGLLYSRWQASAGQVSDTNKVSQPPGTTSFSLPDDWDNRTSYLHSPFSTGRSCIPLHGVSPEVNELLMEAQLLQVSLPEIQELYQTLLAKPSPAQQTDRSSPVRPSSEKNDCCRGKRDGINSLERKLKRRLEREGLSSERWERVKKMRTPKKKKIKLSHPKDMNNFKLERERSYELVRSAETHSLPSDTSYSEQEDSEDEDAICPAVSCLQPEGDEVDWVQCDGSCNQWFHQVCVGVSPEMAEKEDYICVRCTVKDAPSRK
Experiment: Primary screen for KDM5B Histone Demethylases FDH-coupled qHTS; also: nearly all actives have a fitted effect of over 70% in size; as to activity change, negative = inhibition: 0% is about no effect
Conditions: FDH-coupled NADH fluorescence (FDH is formaldehyde dehydrogenase); activity change, negative = inhibition: at 57.7 µM (top of the series) unless noted
Outline: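 qHTS format, multiple compound concentrations. Buffer 50 mM HEPES pH 7.5/0.01% Tween-20; 200 nM KDM5BΔAP final; 10 min compound preincubation; substrate-mix levels 12.5 µM peptide, 25 µM α-KG, 0.25 mM NAD⁺; 30 min RT; ΔRFU.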
Potency is read from the fitted curve at half-maximal effect; tags tell the direction and shape of the fitted curve.

Compound | Potency | activity change, negative = inhibition
C=CCCC(CN1CCCC1)Oc1ccc(C(=O)NCC)cn1 (configuration not stated) | inconclusive: 12.6 µM [inhibitor, partial curve, poor fit] | –
CCOC(=O)c1cccc(NC(=O)c2ccc3c(c2)N(C)C2CCCCCN2C3=O)c1 (configuration not stated) | inconclusive: 25.1 µM [inhibitor, partial curve, poor fit] | –
COc1ccc2cc(C(=O)N3CCC(Cc4ccccc4)CC3)[nH]c2c1 | inconclusive: 31.6 µM [inhibitor, single point] | –
CCCNC(=O)/C(C#N)=C/c1c[nH]c2ccccc12 | inactive | –
CC(=O)N1CC2(CCCN(CC3CCCCC3)C2)Cc2ccccc21 (configuration not stated) | inconclusive: 22.4 µM [inhibitor, full curve, poor fit] | –
CSC1=N/C(=C\c2ccc(-c3cccc(Cl)c3)o2)C(=O)S1 | inconclusive: 31.6 µM [inhibitor, partial curve, poor fit] | –
Cc1cc(NCc2nc(-c3cccs3)no2)ccc1-n1cnnn1 | inactive | –
COc1cccc(-c2nc3cc4c(cc3cc2CN2CCCOCC2)OCO4)c1OC | active: 28.2 µM | –
Clc1ccccc1CNc1ncnc2c1nc1n2CCCC1 | inconclusive: 28.2 µM [inhibitor, partial curve, poor fit] | –
Cc1oc(-c2ccccc2)nc1CSCC(=O)Nc1ccc(F)c(F)c1 | inactive | –
CC(C)c1ccc(OCC(=O)Nc2ccc3oc(-c4cccnc4)nc3c2)cc1 | inconclusive: 31.6 µM [inhibitor, partial curve, poor fit] | –
CCc1ccc(-c2nc3cc(NC(=O)c4ccc([N+](=O)[O-])o4)ccc3o2)cc1 | inactive | –
CCN(CC)c1nc2c(S(=O)(=O)c3ccccc3)nnn2c2ccc(Cl)cc12 | inconclusive: 31.6 µM [inhibitor, partial curve, poor fit] | –
Cc1cccc(-c2nc(S(=O)(=O)c3ccc(Cl)cc3)c(N3CCCCCC3)o2)c1 | inconclusive: 28.2 µM [inhibitor, partial curve, poor fit] | –
CNC(=O)C1CCN(Cc2ncc(-c3ccccc3)o2)CC1 | inactive | –
CC(C)c1cccc(-c2cc(NCc3ccccn3)nc3[nH]ccc23)n1 | inconclusive: 28.2 µM [inhibitor, partial curve, poor fit] | –
CCOc1ccccc1CN1CCCCCC1c1sccc1C (configuration not stated) | inconclusive: 39.8 µM [inhibitor, single point] | –
O=C1CCC2(CCNCC2)CCN1 | inconclusive: 15.8 µM [inhibitor, partial curve, poor fit] | –
Cc1c(-c2ccc(Br)cc2)nc2ccccc2c1C(=O)O | inactive | –
Cc1cccc(Cn2cc(/C=C(/C#N)C(=O)Nc3cccc(Cl)c3)c3ccccc32)c1 | inconclusive: 25.1 µM [inhibitor, partial curve, poor fit] | –
O=C1NCCCCCCN(Cc2ccncc2)[C@@H]2CN(C(=O)CCc3ccccc3)CC[C@@H]12 | inconclusive: 39.8 µM [inhibitor, single point] | –
COc1cccc([S+](=O)([O-])N2CCCC3(COc4ccccc4C(=O)N3)C2)c1 (configuration not stated) | active: 25.1 µM | –
CCN(C(=O)c1cc2c(=O)oc3ccccc3c2s1)c1ccc(C)c(C)c1 | inconclusive: 25.1 µM [inhibitor, partial curve, poor fit] | –

Compound | Potency | activity change, negative = inhibition
COc1ccc(N2C(=O)CSC23CCN(C(=O)c2ccccc2Br)CC3)cc1 | active: 35.5 µM | –
Cn1c(=O)c(C(=O)NNC(=O)c2ccccc2F)c(O)c2ccccc21 | inconclusive: 15.8 µM [inhibitor, partial curve, poor fit] | –
Cc1ccccc1Nc1cc(C(=O)NC2CCCC2)c2ccccc2n1 | inconclusive: 31.6 µM [inhibitor, partial curve, poor fit] | –
CCOc1ccc(OCC(=O)NCCN2CCN(S(=O)(=O)c3ccc(C)cc3)CC2)cc1 | inactive | –
CN(C)C[C@@H]1CN(c2ncccn2)C[C@H]1NS(=O)(=O)c1ccc(Cl)cc1 | active: 28.2 µM | –
COc1cccc(NC(=O)NNC(=O)CCc2ccc(O)c(O)c2)c1 | inconclusive: 39.8 µM [inhibitor, single point] | –
CC(C)NC(=O)CC[C@@H]1CNC(=O)[C@@H]2C[C@H](NCc3ccc(N(C)C)cc3)CN12 | inconclusive: 39.8 µM [inhibitor, partial curve] | –
CCc1c(C)sc(NC(=O)c2ccccc2F)c1C#N | inconclusive: 35.5 µM [inhibitor, single point] | –
COc1ccc(OC)c(C(=O)c2c(C)oc3cc(Br)c(O)c(CN(C)C)c23)c1 | inconclusive: 39.8 µM [inhibitor, partial curve, poor fit] | –
Cc1ccc(OCC(=O)N(Cc2ccc(Cl)cc2)Cc2ccco2)cc1C | – | inconclusive: -35.9% [inhibitor]
CCOc1ccc(NC(=O)c2cc3c(C)nn(-c4ccccc4)c3s2)cc1 | inconclusive: 11.2 µM [inhibitor, partial curve, poor fit] | –
COc1cc(NC(=O)CN2C(=O)NC3(CCCCC3)C2=O)cc(OC)c1 | inactive | –
Cc1cc(C)cc(NC(=O)c2cc(C)nc3c2c(C)nn3-c2ccccc2)c1 | – | inconclusive: -141% [inhibitor]
CCCCCCCCC(=O)Nc1cccc(C)c1C | inactive | –
CCC(C)(C)C1CCc2c(sc(N)c2C#N)C1 (configuration not stated) | inconclusive: 31.6 µM [inhibitor, partial curve, poor fit] | –
COc1cc(OC)c(NC(=O)N2c3ccccc3CC2c2nc(C3CC3)no2)cc1Cl (configuration not stated) | inconclusive: 17.8 µM [inhibitor, partial curve, poor fit] | –
CCC(C(=O)NN1CCCCC1)c1ccccc1 (configuration not stated) | inactive | –
Cc1ccc(CCN2CCC3(Cc4ccccc4CN([S+](C)(=O)[O-])C3)C2)cc1 (configuration not stated) | inconclusive: 70.8 µM [inhibitor, partial curve, poor fit] | –
CCCn1c(NCCc2ccccc2)nc2c1c(=O)n(C)c(=O)n2C | inconclusive: 22.4 µM [inhibitor, partial curve, poor fit] | –
COCCNC(=O)c1ccc2nccn2c1 | active: 35.5 µM | –
O=C1CC(c2c[nH]c3ccccc23)C(=O)N1c1cccc(Br)c1 (configuration not stated) | inactive | –
CCC1=C(C(=O)OC)C(c2ccc(C)cc2C)N2C(CC(=O)N3CCCC3)=CSC2=N1 (configuration not stated) | inconclusive: 25.1 µM [inhibitor, single point] | –
Cc1cc(CNC(=O)CCc2ncc(-c3ccccc3)o2)ccc1F | inactive | –

Compound | Potency | activity change, negative = inhibition
COc1ccc2c(c1)OCC(C(=O)NCCNc1cc(C)ccn1)C2 (configuration not stated) | inconclusive: 17.8 µM [inhibitor, partial curve, poor fit] | –
COC(=O)C1=C(C)OC(n2cccc2)=C(C#N)C1c1cccc(OC)c1OC (configuration not stated) | inactive | –
Cc1ccc(-c2nnc(Nc3ccc(Br)cc3)c3ccccc23)cc1S(=O)(=O)NCC1CCCO1 (configuration not stated) | inconclusive: 25.1 µM [inhibitor, partial curve, poor fit] | –
CC1CCN(Cc2ccc(C(=O)N3CCCC4(CCNC4)C3)o2)CC1 (configuration not stated) | inactive | –
Cc1nn(-c2ccccc2)c(OC(=O)c2cccc(Br)c2)c1S(=O)(=O)c1ccccc1 | inconclusive: 35.5 µM [inhibitor, single point] | –
N#Cc1nc(COc2ccc(Br)cc2)oc1N1CCCCC1 | inactive | –
N#Cc1nc(-c2ccc(COc3ccccc3)o2)oc1NCc1cccnc1 | inconclusive: 25.1 µM [inhibitor, partial curve, poor fit] | –
COCC(=O)N1CCN(c2oc(-c3ccc(C)cc3)nc2S(=O)(=O)c2ccccc2)CC1 | inconclusive: 35.5 µM [inhibitor, single point] | –
Cc1cn2nc(C(=O)N3CCC(NC(=O)c4ccccc4C)CC3)cc2c(=O)[nH]1 | inconclusive: 28.2 µM [inhibitor, single point] | –
O=C(CCCc1nc(-c2ccccc2)no1)Nc1cccc(S(=O)(=O)N2CCOCC2)c1 | inactive | –
COc1ccc(NC(=O)CN2C(=O)C(C)(C)c3ccccc32)cc1Cl | inactive | –
CCc1ccc(CNC(=O)c2cc3c(N4CCCC4)nc(C)cn3n2)cc1 | active: 25.1 µM | –
Cc1noc(-c2cccn3c(CNC(=O)c4c[nH]c5ccccc45)nnc23)n1 | inconclusive: 17.8 µM [inhibitor, partial curve] | –
FC(F)(F)c1ccnc(-c2cc(NCc3ccccn3)nc3[nH]ccc23)c1 | inactive | –
Cc1cccc(N2C(N)=C(C#N)C3(C(=O)N(Cc4ccccc4F)c4ccccc43)C3=C2COC3=O)c1 (configuration not stated) | inconclusive: 39.8 µM [inhibitor, single point] | –
CCCCCNC(=O)c1ccc2c(c1)ncn2-c1cccc(C)c1 | – | inconclusive: -30.6% [inhibitor]
COc1ccc(CC(=O)NC2CCN(c3cc(-c4ccc(Cl)cc4)[nH]n3)CC2)cc1OC | inconclusive: 14.1 µM [inhibitor, partial curve] | –
O=C1COc2ccc(-c3cc(-c4ccc(Cl)cc4)c4c(n3)-c3ccccc3OC4)cc2N1 | inconclusive: 1.58 µM [inhibitor, full curve, poor fit] | –
COP(=O)(OC)c1nc(-c2ccc(Cl)cc2)oc1NCc1cccnc1 | inconclusive: 25.1 µM [inhibitor, partial curve, poor fit] | –
CSc1nc(Nc2ccc(C)cc2C)cc(-c2ccccc2)n1 | inconclusive: 39.8 µM [inhibitor, partial curve, poor fit] | –
Cc1cc(C)c(NC(=O)CCN2C(=O)c3ccccc3Sc3ncccc32)c(C)c1 | inconclusive: 28.2 µM [inhibitor, single point] | –
